# The whole screen tested about 360,000 compounds, of which about 520 (0.14%) were called active. Inconclusive means that the source gave no clear call. Such entries were picked first, then a sample of the others. Calls follow the shape of the dose curve; as a rule, active = well fitted inhibition curve with a large enough effect; inconclusive = small, poorly fitted or top-dose-only effect; inactive = no such curve, though single readings can be large or run the other way. Potencies of inconclusive entries are left out as doubtful fits.
# Target: Rap guanine nucleotide exchange factor 3 (Homo sapiens) (UniProt O95398)
# Assay: qHTS for Antagonist of cAMP-regulated guanine nucleotide exchange factor 3 (EPAC1): primary screen; also: nearly all actives have a fitted effect of over 50% in size;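 as to activity change, negative = inhibition: plate controls were vehicle for no effect and positive control for full effect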
# Details: EPAC1 GEF assay, Rap1b-BODIPY-GDP exchange fluorescence; activity change, negative = inhibition: at 115 µM (top of the series)
# Potency is read from the fitted curve at half-maximal effect; tags tell the direction and shape of the fitted curve.
# Sequence of UniProt O95398 (O95398 whole entry, looked up): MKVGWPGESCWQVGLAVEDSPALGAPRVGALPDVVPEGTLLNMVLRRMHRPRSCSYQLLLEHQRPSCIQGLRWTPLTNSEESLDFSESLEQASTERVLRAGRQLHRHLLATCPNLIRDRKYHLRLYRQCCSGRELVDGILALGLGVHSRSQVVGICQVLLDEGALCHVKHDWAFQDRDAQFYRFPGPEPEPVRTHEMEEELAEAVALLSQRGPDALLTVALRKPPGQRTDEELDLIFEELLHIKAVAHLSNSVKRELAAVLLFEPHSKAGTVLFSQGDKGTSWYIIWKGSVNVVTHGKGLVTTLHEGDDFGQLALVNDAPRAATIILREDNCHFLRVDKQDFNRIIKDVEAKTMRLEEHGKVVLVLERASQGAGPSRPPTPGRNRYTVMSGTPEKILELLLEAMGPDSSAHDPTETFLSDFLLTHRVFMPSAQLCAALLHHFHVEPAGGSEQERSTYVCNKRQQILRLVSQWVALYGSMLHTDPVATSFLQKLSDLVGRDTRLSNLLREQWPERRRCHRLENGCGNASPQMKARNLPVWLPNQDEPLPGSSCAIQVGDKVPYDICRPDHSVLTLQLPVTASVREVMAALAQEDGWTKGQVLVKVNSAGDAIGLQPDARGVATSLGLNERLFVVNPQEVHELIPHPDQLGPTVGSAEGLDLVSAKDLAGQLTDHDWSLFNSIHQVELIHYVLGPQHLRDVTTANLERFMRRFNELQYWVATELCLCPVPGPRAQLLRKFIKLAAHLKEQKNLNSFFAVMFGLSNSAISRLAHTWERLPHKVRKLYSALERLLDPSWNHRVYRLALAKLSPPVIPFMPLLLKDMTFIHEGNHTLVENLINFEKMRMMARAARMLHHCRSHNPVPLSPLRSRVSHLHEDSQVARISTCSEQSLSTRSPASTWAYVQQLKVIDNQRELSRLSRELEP
Compound,Potency,"activity change, negative = inhibition"
Cc1cc(C)c2c(=O)cc(C(=O)NCc3ccccc3)oc2c1,"inconclusive [inhibitor, partial curve]",
Cc1ccc(NC(=S)NNc2ccc([N+](=O)[O-])cc2S(=O)(=O)Nc2ccccc2C(=O)O)cc1C,"inconclusive [inhibitor, full curve]",
O=C(O)COc1ccc2nsnc2c1Cl,,inactive: 2.93%
COc1cc2c(cc1OC)C(O)=CC(=O)C2=O,"inconclusive [inhibitor, single point]",
COc1cc(NC(=O)CN2c3ccccc3CC2C)cc(OC)c1OC (configuration not stated),,inconclusive: 0% [inhibitor]
COCCNC(=O)C(C)OC(=O)C1=Cc2ccccc2OC1 (configuration not stated),,inactive: -6.53%
Cc1c(C(Nc2ccccn2)c2ccccc2)c(=O)n(-c2ccccc2)n1C (configuration not stated),"inconclusive [inhibitor, partial curve]",
C1=C(N2CCOCC2)/C(=C/c2nc3ccccc3[nH]2)CC1,"inconclusive [inhibitor, single point]",
CCc1ccc2c(c1)cc(CN(C(=S)Nc1cccc(C)c1)C1CC1)c1nnnn12,"inconclusive [inhibitor, partial curve, poor fit]",
CCc1nnc(NC(=O)c2sc3nc4c(cc3c2N)CCCCCC4)s1,"inconclusive [inhibitor, full curve, poor fit]",
CC(C(=O)N1CCCC1)N(c1ccc(Cl)cc1)S(C)(=O)=O (configuration not stated),,inactive: -15.1%
COc1cc(C2c3cc4c(cc3CC3COC(=O)N32)OCO4)cc(OC)c1OC (configuration not stated),,inactive: -1.86%
COc1ccc(OC)c(C2C3CN(C(C)C)CC=C3C(C#N)=C(N)C2(C#N)C#N)c1 (configuration not stated),,inactive: -3.37%
O=C(NCc1cccc(CNC(=O)Nc2cccc(O)c2)c1)Nc1cccc(O)c1,"inconclusive [inhibitor, full curve, poor fit]",
Cc1cccc(CNC(=O)C2CCC(=O)N(CC3CCCCC3)C2)c1 (configuration not stated),,inactive: 7.09%
CN(C)C(=O)c1ccc(N/C=C(\C=O)c2nc3ccccc3o2)cc1,,inactive: -2.75%
O=C(NCC(c1ccco1)N1CCN(c2ccccc2F)CC1)c1ccco1 (configuration not stated),"inconclusive [inhibitor, partial curve]",
COc1ccc(C(=O)C2CCCN(C(=O)CCC3=NNC(=O)CC3)C2)c(C)c1 (configuration not stated),"inconclusive [inhibitor, single point]",
CCOC(=O)/C(=N\Nc1ccc(Br)cc1)N1CC(C)OC(C)C1 (configuration not stated),,inactive: -10%
CCOc1ccccc1NC(=O)CC1Nc2ccccc2NC1=O (configuration not stated),"inconclusive [inhibitor, full curve]",
CCN(CC)c1nc2ccccc2n(Cc2cccc(OC)c2)c1=O,"inconclusive [inhibitor, single point]",
O=C1/C(=C/c2ccc(O)c(O)c2)SC(=S)N1Nc1ccccc1,"inconclusive [inhibitor, partial curve]",
Cc1cccc(NC(=O)C2C(c3ccccc3)C2(Cl)Cl)c1C (configuration not stated),"inconclusive [inhibitor, full curve]",

Compound,Potency,"activity change, negative = inhibition"
CCOc1ccc(C=NNc2ccc(S(=O)(=O)Nc3ccccc3C(=O)O)cc2[N+](=O)[O-])cc1,"inconclusive [inhibitor, full curve, poor fit]",
CN(c1ccc(O)cc1)c1nc(O)c(C2=c3ccccc3=NC2=O)s1,"inconclusive [inhibitor, full curve]",
CCOC(=O)C1=NOC2C3CC(C12)C1C(=O)N(CCc2ccc(OC)c(OC)c2)C(=O)C31 (configuration not stated),,inactive: 16.8%
CCNC(=S)N/N=C(\C)c1ccc(Cl)s1,,inactive: -16.5%
CCOc1ccc(-c2c(C(=O)N/N=C/c3cccnc3)nnn2-c2nonc2N)cc1,,inactive: -29.8%
CC(C)CC(=O)Nc1ccc(C(=O)COC(=O)C2CCC2)cc1,"inconclusive [inhibitor, full curve]",
CCC(=O)NC1=C(Cl)C(=O)C(NC(=O)CC)=C(Cl)C1=O,"inconclusive [inhibitor, partial curve, poor fit]",
Cc1c(C(=O)C(=O)NCCc2ccc(S(N)(=O)=O)cc2)c2ccccc2n1C,"inconclusive [inhibitor, partial curve, poor fit]",
CC(C)Sc1nc2c(cnn2-c2ccccc2)c(=O)[nH]1,"inconclusive [inhibitor, single point]",
COc1ccc(NC(=O)c2cc(-c3cc(C)cc(F)c3)n[nH]2)cc1OC,"inconclusive [inhibitor, partial curve, poor fit]",
CCc1ccc(NS(=O)(=O)c2c(C(=O)N3CCOCC3)c(C)n(C)c2C)cc1,"inconclusive [inhibitor, full curve]",
O=C(CSc1n[nH]c(-c2cccnc2)n1)Nc1ccccc1[N+](=O)[O-],"inconclusive [inhibitor, single point]",
O=C(OCc1ccc([N+](=O)[O-])cc1)c1cc(=O)c2ccccc2o1,"inconclusive [inhibitor, single point]",
Cc1occc1C(=O)N(C)Cc1nc(-c2ccc(Cl)cc2)no1,"inconclusive [inhibitor, partial curve, poor fit]",
S=C(NC1CC1)N1CCc2ccccc2C1,"inconclusive [inhibitor, full curve, poor fit]",
Cc1cc(C)c(C)c(S(=O)(=O)N2CCN(C(=S)NCC3CCCO3)CC2)c1C (configuration not stated),"inconclusive [inhibitor, partial curve]",
Cc1ccc(NC(=O)CNNC(=O)c2cccc([N+](=O)[O-])c2)cc1[N+](=O)[O-],,inactive: 0.257%
O=C(O)c1cc(-c2cccc3ccccc23)nc2ccccc12,,inactive: -9.98%
CN(Cc1c(F)cccc1Cl)C(=O)C1CC(=O)N(CCc2ccccc2)C1 (configuration not stated),"inconclusive [inhibitor, single point]",
CC(C)(C)c1ccc(-c2noc(CCC(N)=O)n2)cc1,"inconclusive [inhibitor, full curve]",
CCCN1C(=O)c2cccc3c(N4CCCCC4)ccc(c23)C1=O,,inactive: 7.77%
COc1ccc(N(CC(=O)Nc2ccc(C)cc2C)S(=O)(=O)c2ccccc2[N+](=O)[O-])c(OC)c1,"inconclusive [inhibitor, full curve, poor fit]",
CN1CCN(c2ccc(CNC(=O)C3(C)Cc4c(-c5ccc6c(c5)OCO6)ccnc4O3)cc2)CC1 (configuration not stated),"inconclusive [inhibitor, partial curve, poor fit]",

Compound,Potency,"activity change, negative = inhibition"
Cc1ccc(C(=O)NC(=S)Nc2ccccc2C(F)(F)F)cc1,"inconclusive [inhibitor, single point]",
O=C1CC(c2ccccc2)CC(O)=C1C=Nc1ccccc1 (configuration not stated),"inconclusive [inhibitor, single point]",
O=C(N/N=C/c1cn(Cc2cccc(F)c2)c2ccccc12)c1cc(O)cc(O)c1,"inconclusive [inhibitor, single point]",
COCCOC(=O)C1=C(C)OC(N)=C(C#N)C1c1cc2cccc(C)c2nc1Cl (configuration not stated),"inconclusive [inhibitor, full curve, poor fit]",
O=C(CSc1nc(-c2ccc(F)cc2)nc2c1Cc1ccccc1O2)Nc1cccc(C(=O)O)c1,"inconclusive [inhibitor, full curve, poor fit]",
Cc1ccc(C(O)c2ncc(-c3ccccc3F)[nH]2)c(C)c1 (configuration not stated),"inconclusive [inhibitor, partial curve, poor fit]",
O=C1N=C(N2CCOCC2)SC1=Cc1ccco1,,inactive: 4.95%
CCCCNC1=CC(=O)C(NCCCC)=CC1=O,,inactive: 4.18%
Cc1ccc(C)c(NC(=O)CSc2ccc(-c3cccs3)nn2)c1,"inconclusive [inhibitor, full curve, poor fit]",
CCN(C(=O)COC(=O)CSc1ccc(F)cc1)c1c(N)n(Cc2ccccc2)c(=O)[nH]c1=O,,inactive: 1.84%
NC(=O)C(=O)N/N=C/c1c2ccccc2cc2ccccc12,"inconclusive [inhibitor, partial curve]",
COc1ccc(C2CC(c3cccs3)=NN2C(=O)CCl)cc1OC (configuration not stated),"inconclusive [inhibitor, full curve, poor fit]",
CC1(OC(=O)C2CCCC2)C(=O)C=C2C=C(c3ccc(C#N)cc3)OC=C2C1=O (configuration not stated),"inconclusive [inhibitor, partial curve]",
COc1ccc(NS(=O)(=O)c2cccc(NC(=O)COc3ccccc3[N+](=O)[O-])c2)cc1,"inconclusive [inhibitor, single point]",
CCc1ccc(-c2cc3c(=O)n(CC(=O)NCCCN4CCC(Cc5ccccc5)CC4)nc(C)n3n2)cc1,,inactive: -5.06%
O=[N+]([O-])CC(c1ccc(F)cc1)c1c[nH]c2ccccc12 (configuration not stated),,inactive: -16.8%
Cc1nc2scc(-c3ccc(C(C)C)cc3)c2c(=O)n1N,"inconclusive [inhibitor, partial curve]",
O=c1c2ccccc2[nH]c(=S)n1-c1cccc(S(=O)(=O)N2CCCC2)c1,"inconclusive [inhibitor, single point]",
COc1ccc(CCNC(=O)CSc2ccc3ccccc3c2)cc1OC,,inactive: 7.04%
COc1ccc(C(=O)CCC(=O)NCCc2c[nH]c3ccccc23)cc1OC,"inconclusive [inhibitor, single point]",
N/C(=N\N=C\c1cccs1)SC1CC(=O)N(c2ccc(Br)cc2)C1=O (configuration not stated),"inconclusive [inhibitor, partial curve]",

# From PubChem BioAssay AID720709 (National Center for Advancing Translational Sciences (NCATS), 2013)
